Measurements as given in paper PMC12613146.
Not every entry of the source has a single result; some have several. The list is limited to them. An entry can have further records. For some assays here: Results that share an entry appear to be repeats (runs, samples, wells or individuals); one of them may be the mean. Entries with a single value are a further part of the results.

Biological target: ectodomain of the epidermal growth factor receptor, EGFR25-645 (human)
Assay: SPR; ligand ectodomain immobilised on streptavidin chips, DDM proteomicelles of the membrane protein injected; single-cycle kinetics, nine-point two-fold dilutions, 60 s association; 20 mM Tris-HCl, 300 mM KCl, 1 mg/ml BSA, 0.05% (v/v) Tween 20, 0.2% (w/v) DDM, pH 7.5

TGF-α(GGS)2tFhuA, sequence (chain): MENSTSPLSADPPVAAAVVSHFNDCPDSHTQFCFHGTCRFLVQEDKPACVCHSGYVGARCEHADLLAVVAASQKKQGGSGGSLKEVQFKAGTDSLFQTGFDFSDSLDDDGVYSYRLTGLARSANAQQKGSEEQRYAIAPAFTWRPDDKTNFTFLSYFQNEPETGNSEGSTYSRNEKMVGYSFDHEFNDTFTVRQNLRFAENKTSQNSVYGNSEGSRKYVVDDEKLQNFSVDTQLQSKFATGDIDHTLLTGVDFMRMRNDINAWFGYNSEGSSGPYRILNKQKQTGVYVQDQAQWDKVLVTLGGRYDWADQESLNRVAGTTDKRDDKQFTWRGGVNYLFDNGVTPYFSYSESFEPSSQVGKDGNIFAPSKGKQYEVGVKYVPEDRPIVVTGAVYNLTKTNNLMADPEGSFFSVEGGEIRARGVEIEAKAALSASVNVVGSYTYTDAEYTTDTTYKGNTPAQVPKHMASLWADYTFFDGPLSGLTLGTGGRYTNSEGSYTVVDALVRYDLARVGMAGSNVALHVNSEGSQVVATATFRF

Kd (individual measurement): 14.9 nM, 17.6 nM, 29.4 nM | Kd (mean of replicate measurements): 20.6 nM
Substance: TGF-α(GGS)2tFhuA
